Reference: patent publication US20080115231A1
Certain results were filed several times, with different values. Only these are listed. There may be further records. Values that stand side by side appear to be repeats on other runs, samples or individuals.

Biological target: NAP-1 IgG (nesfatin-1 IgG)
Assay: competitive EIA; unlabelled recombinant nesfatin-1 against biotin-labelled nesfatin-1 on immobilized nesfatin-1 IgG

sensitivity of the competitive EIA system: 4.6 ng/tube and 93 ng/ml
B1: recombinant mouse nesfatin-1 (Working Example 16) (peptide)
peptide: VPIDVDKTKVHNTEPVENARIEPPDTGLYYDEYLKQVIEVLETDPHFREKLQKADIEEIRSGRLSQELDLVSHKVRTRLDEL
